# According to the supplement of paper PMC4604168 (melanoma cell lines):
# The list shows a part of the results. Many values rest on one well or one pass, so single values are uncertain.
# How the values were obtained:
# Test in all cases: cell count relative to DMSO control; melanoma cells; higher = more viable cells
# Conditions in all cases: library dose: low library concentration; 72 h
# [1] = system: WM115
# [2] = system: WM1716
# [3] = system: WM1745
# [4] = system: WM3526
# [5] = system: WM3619
# [6] = system: WM451Lu
# 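Further: cell number obtained by counting DAPI-stained nuclei in high-throughput microscope images with image analysis software, screen run in 1,536-well plates.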
structure (smiles),measurement,setting,value
"O=C(O)c1ccc(-c2c[nH]c3ncc(-c4ccccc4)cc23)cc1C1CCCC1 + O=C(Nc1ccccc1)c1cc([N+](=O)[O-])ccc1Cl [GW9662] (first compound 0.16 µM, partner dose 2 µM)",cell count,[1],95.2%
same,cell count,[2],106%
same,cell count,[3],104%
same,cell count,[4],91.9%
same,cell count,[5],112%
same,cell count,[6],99.5%
"O=c1[nH]nc(Sc2ncc([N+](=O)[O-])s2)n1-c1ccc2c(c1)OCCO2 + CC(=O)c1c(C)c2cnc(Nc3ccc(N4CCNCC4)cn3)nc2n(C2CCCC2)c1=O [palbociclib] (first compound 0.2 µM, partner dose 0.04 µM)",cell count,[1],76.5%
same,cell count,[2],73.4%
same,cell count,[3],83.5%
same,cell count,[4],62.9%
same,cell count,[5],87.5%
same,cell count,[6],82.2%
"O=c1[nH]nc(Sc2ncc([N+](=O)[O-])s2)n1-c1ccc2c(c1)OCCO2 + Oc1cc(-c2nc(-c3ccccc3)[nH]c2-c2ccncc2)ccc1Cl [L779450] (first compound 0.2 µM, partner dose 0.2 µM)",cell count,[1],85.3%
same,cell count,[2],112%
same,cell count,[3],85.6%
same,cell count,[4],84.5%
same,cell count,[5],110%
same,cell count,[6],103%
"O=c1[nH]nc(Sc2ncc([N+](=O)[O-])s2)n1-c1ccc2c(c1)OCCO2 + CC(C)CCN1c2nc(Nc3cc(F)c(O)c(F)c3)ncc2N(C)C(=O)C1C [BID1870] (first compound 0.2 µM, partner dose 0.2 µM)",cell count,[1],102%
same,cell count,[2],109%
same,cell count,[3],106%
same,cell count,[4],88%
same,cell count,[5],100%
same,cell count,[6],90.2%
"O=C(Nc1cccc(Cl)c1)Nc1ncc(CCNc2ncnc3ccsc23)s1 + COc1cc2ncnc(Nc3ccc(Oc4ccccc4)cc3)c2cc1OC [SrcI1] (first compound 0.0008 µM, partner dose 2 µM)",cell count,[1],77.1%
same,cell count,[2],119%
same,cell count,[3],79.2%
same,cell count,[4],108%
same,cell count,[5],144%
same,cell count,[6],106%
"CC1(C)NC(=O)N(c2ccc([N+](=O)[O-])c(C(F)(F)F)c2)C1=O [nilutamide] + CCN(CC)CCCCNc1ncc2cc(-c3cc(OC)cc(OC)c3)c(NC(=O)NC(C)(C)C)nc2n1 [PD173074] (first compound 1 µM, partner dose 0.1 µM)",cell count,[1],96.1%
same,cell count,[2],98.8%
same,cell count,[3],111%
same,cell count,[4],115%
same,cell count,[5],127%
same,cell count,[6],122%
"O=c1[nH]nc(Sc2ncc([N+](=O)[O-])s2)n1-c1ccc2c(c1)OCCO2 + CC(C)C[C@H](NC(=O)[C@H](Cc1ccccc1)NC(=O)c1cnccn1)B(O)O [Bortezomib] (first compound 0.2 µM, partner dose 0.001 µM)",cell count,[1],103%
same,cell count,[2],96.7%
same,cell count,[3],87.4%
same,cell count,[4],111%
same,cell count,[5],65.9%
same,cell count,[6],91.5%
"COc1cc(Nc2ncc(F)c(Nc3ccc4c(n3)NC(=O)C(C)(C)O4)n2)cc(OC)c1OC [Tamatinib] + COc1ccc2c(c1)CCC1C2CCC2(C)C(NCCCCCCN3C(=O)C=CC3=O)CCC12 [U73122] (first compound 0.4 µM, partner dose 0.4 µM)",cell count,[1],90.6%
same,cell count,[2],81.2%
same,cell count,[3],66%
same,cell count,[4],88.3%
same,cell count,[5],110%
same,cell count,[6],101%
"O=c1[nH]nc(Sc2ncc([N+](=O)[O-])s2)n1-c1ccc2c(c1)OCCO2 + C=CCn1c(=O)c2cnc(Nc3ccc(N4CCN(C)CC4)cc3)nc2n1-c1cccc(C(C)(C)O)n1 [MK1775] (first compound 0.2 µM, partner dose 0.02 µM)",cell count,[1],93.7%
same,cell count,[2],90.5%
same,cell count,[3],87.6%
same,cell count,[4],99.4%
same,cell count,[5],95.4%
same,cell count,[6],106%
"CC1(C)NC(=O)N(c2ccc([N+](=O)[O-])c(C(F)(F)F)c2)C1=O [nilutamide] + COc1cc2ncnc(Nc3ccc(Oc4ccccc4)cc3)c2cc1OC [SrcI1] (first compound 1 µM, partner dose 2 µM)",cell count,[1],104%
same,cell count,[2],133%
same,cell count,[3],95.2%
same,cell count,[4],92.8%
same,cell count,[5],114%
same,cell count,[6],130%
"O=c1[nH]nc(Sc2ncc([N+](=O)[O-])s2)n1-c1ccc2c(c1)OCCO2 + CC1(C)CCC(c2ccc(Cl)cc2)=C(CN2CCN(c3ccc(C(=O)NS(=O)(=O)c4ccc(N[C@H](CCN5CCOCC5)CSc5ccccc5)c(S(=O)(=O)C(F)(F)F)c4)cc3)CC2)C1 [ABT263] (first compound 0.2 µM, partner dose 0.4 µM)",cell count,[1],85.7%
same,cell count,[2],72.8%
same,cell count,[3],17.3%
same,cell count,[4],86.9%
same,cell count,[5],61.4%
same,cell count,[6],79%
"O=C(Nc1cccc(Cl)c1)Nc1ncc(CCNc2ncnc3ccsc23)s1 + COc1cc(N2CCC(N3CCN(C)CC3)CC2)ccc1Nc1ncc(Cl)c(Nc2ccccc2S(=O)(=O)C(C)C)n1 [NVP-TAE684] (first compound 0.0008 µM, partner dose 0.08 µM)",cell count,[1],67.3%
same,cell count,[2],101%
same,cell count,[3],80.6%
same,cell count,[4],98.6%
same,cell count,[5],93.9%
same,cell count,[6],103%
"O=c1[nH]nc(Sc2ncc([N+](=O)[O-])s2)n1-c1ccc2c(c1)OCCO2 + Cn1cncc1[C@@](N)(c1ccc(Cl)cc1)c1ccc2c(c1)c(-c1cccc(Cl)c1)cc(=O)n2C [tipifarnib] (first compound 0.2 µM, partner dose 0.01 µM)",cell count,[1],99.2%
same,cell count,[2],90.9%
same,cell count,[3],104%
same,cell count,[4],74.5%
same,cell count,[5],147%
same,cell count,[6],114%
"COc1cc(Nc2ncc(F)c(Nc3ccc4c(n3)NC(=O)C(C)(C)O4)n2)cc(OC)c1OC [Tamatinib] + C[C@@H]1CCN(C(=O)CC#N)C[C@@H]1N(C)c1ncnc2[nH]ccc12 [CP690550] (first compound 0.4 µM, partner dose 1 µM)",cell count,[1],73.6%
same,cell count,[2],90.8%
same,cell count,[3],72.6%
same,cell count,[4],85.5%
same,cell count,[5],101%
same,cell count,[6],106%
"C[C@@H]1CCN(C(=O)CC#N)C[C@@H]1N(C)c1ncnc2[nH]ccc12 + CCc1ccc(CCOc2ccc(CC3SC(=O)NC3=O)cc2)nc1 [pioglitazone] (first compound 1 µM, partner dose 2 µM)",cell count,[1],101%
same,cell count,[2],98.1%
same,cell count,[3],94.1%
same,cell count,[4],95%
same,cell count,[5],116%
same,cell count,[6],127%
"CC1(C)NC(=O)N(c2ccc([N+](=O)[O-])c(C(F)(F)F)c2)C1=O [nilutamide] + COc1ccc(COc2ccc(Cc3cnc(N)nc3N)cc2OC)cc1 [GW2580] (first compound 1 µM, partner dose 1 µM)",cell count,[1],113%
same,cell count,[2],91.6%
same,cell count,[3],88.9%
same,cell count,[4],115%
same,cell count,[5],84.2%
same,cell count,[6],111%
"Cn1cncc1[C@@](N)(c1ccc(Cl)cc1)c1ccc2c(c1)c(-c1cccc(Cl)c1)cc(=O)n2C [tipifarnib] + Oc1cc(-c2nc(-c3ccccc3)[nH]c2-c2ccncc2)ccc1Cl [L779450] (first compound 0.01 µM, partner dose 0.2 µM)",cell count,[1],88.3%
same,cell count,[2],96.6%
same,cell count,[3],96%
same,cell count,[4],80.1%
same,cell count,[5],79.1%
same,cell count,[6],111%
"O=C(Nc1cccc(Cl)c1)Nc1ncc(CCNc2ncnc3ccsc23)s1 + O=C(O)c1ccc(-c2c[nH]c3ncc(-c4ccccc4)cc23)cc1C1CCCC1 [GSK650394] (first compound 0.0008 µM, partner dose 0.16 µM)",cell count,[1],82.9%
same,cell count,[2],112%
same,cell count,[3],85.1%
same,cell count,[4],92.7%
same,cell count,[5],88.9%
same,cell count,[6],108%
"O=c1[nH]nc(Sc2ncc([N+](=O)[O-])s2)n1-c1ccc2c(c1)OCCO2 + COc1ccc2c(c1)CCC1C2CCC2(C)C(NCCCCCCN3C(=O)C=CC3=O)CCC12 [U73122] (first compound 0.2 µM, partner dose 0.4 µM)",cell count,[1],93.1%
same,cell count,[2],84.3%
same,cell count,[3],92.3%
same,cell count,[4],113%
same,cell count,[5],76.4%
same,cell count,[6],106%
"O=c1[nH]nc(Sc2ncc([N+](=O)[O-])s2)n1-c1ccc2c(c1)OCCO2 + O=C(CCCCCCC(=O)Nc1ccccc1)NO [vorinostat] (first compound 0.2 µM, partner dose 0.08 µM)",cell count,[1],106%
same,cell count,[2],102%
same,cell count,[3],108%
same,cell count,[4],104%
same,cell count,[5],106%
same,cell count,[6],99.6%
"O=c1[nH]nc(Sc2ncc([N+](=O)[O-])s2)n1-c1ccc2c(c1)OCCO2 + COc1cc(N2CCC(N3CCN(C)CC3)CC2)ccc1Nc1ncc(Cl)c(Nc2ccccc2S(=O)(=O)C(C)C)n1 [NVP-TAE684] (first compound 0.2 µM, partner dose 0.08 µM)",cell count,[1],99.7%
same,cell count,[2],104%
same,cell count,[3],72.6%
same,cell count,[4],106%
same,cell count,[5],76.1%
same,cell count,[6],94.3%
"O=C(Nc1cccc(Cl)c1)Nc1ncc(CCNc2ncnc3ccsc23)s1 + CN(C)S(=O)(=O)c1ccc2c(c1)/C(=C/c1cc3c([nH]1)CCCC3)C(=O)N2 [SU6656] (first compound 0.0008 µM, partner dose 0.4 µM)",cell count,[1],45.4%
same,cell count,[2],116%
same,cell count,[3],94%
same,cell count,[4],87.7%
same,cell count,[5],125%
same,cell count,[6],90.6%
"C[C@@H]1CCN(C(=O)CC#N)C[C@@H]1N(C)c1ncnc2[nH]ccc12 + COc1ccc(COc2ccc(Cc3cnc(N)nc3N)cc2OC)cc1 [GW2580] (first compound 1 µM, partner dose 1 µM)",cell count,[1],92.6%
same,cell count,[2],94.4%
same,cell count,[3],89.4%
same,cell count,[4],120%
same,cell count,[5],102%
same,cell count,[6],97.3%
"C[C@@H]1CCN(C(=O)CC#N)C[C@@H]1N(C)c1ncnc2[nH]ccc12 + NCC(=O)Nc1ccc(-n2nc(C(F)(F)F)cc2-c2ccc3c(ccc4ccccc43)c2)cc1 [OSU03012] (first compound 1 µM, partner dose 1 µM)",cell count,[1],85.9%
same,cell count,[2],106%
same,cell count,[3],92.1%
same,cell count,[4],40.9%
same,cell count,[5],97.3%
same,cell count,[6],73.6%
"O=c1[nH]nc(Sc2ncc([N+](=O)[O-])s2)n1-c1ccc2c(c1)OCCO2 + CC(C)(C)c1cnc(CSc2cnc(NC(=O)C3CCNCC3)s2)o1 [SNS-032] (first compound 0.2 µM, partner dose 0.01 µM)",cell count,[1],96.8%
same,cell count,[2],82.3%
same,cell count,[3],82%
same,cell count,[4],88.4%
same,cell count,[5],119%
same,cell count,[6],109%
"O=C(Nc1cccc(Cl)c1)Nc1ncc(CCNc2ncnc3ccsc23)s1 + COC(=O)c1sccc1S(=O)(=O)Nc1ccc(Nc2ccccc2)cc1OC [GSK0660] (first compound 0.0008 µM, partner dose 1 µM)",cell count,[1],82.4%
same,cell count,[2],116%
same,cell count,[3],95.1%
same,cell count,[4],95.9%
same,cell count,[5],98.9%
same,cell count,[6],96%
